One block for each binder: values may come before it.
Experiments:
[1] = target: recombinant human NGF 1-120 (human) (UniProt P01138); assay: cell-based or functional assay
[2] = target: recombinant rat beta-NGF (R&D Systems) (rat) (UniProt P25427); assay: cell-based or functional assay
Chain of UniProt P25427 (P25427 122-241 limits assumed): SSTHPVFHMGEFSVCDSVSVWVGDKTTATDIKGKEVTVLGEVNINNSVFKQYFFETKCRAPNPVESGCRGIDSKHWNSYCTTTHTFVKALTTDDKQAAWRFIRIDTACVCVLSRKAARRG

Chain of UniProt P01138 (P01138 other isoform, or with tags, fused parts or gaps): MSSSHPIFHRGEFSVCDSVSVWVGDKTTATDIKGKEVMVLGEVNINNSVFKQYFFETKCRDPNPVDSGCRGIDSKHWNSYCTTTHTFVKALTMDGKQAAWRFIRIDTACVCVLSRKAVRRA

IC50 @ hNGF, NGF neutralization activity as in Example 3 [1]: 3.29 nM
IC50 @ rNGF, NGF neutralization activity as in Example 3 [2]: 1.75 nM
B1: anti-NGF antibody 7H2 (antibody, V domains shown)
VH: EVQLVESGGGLVQPGRSLRLSCAASGFIFDDYAMHWVRQAPGKGLEWVSGITWNSGILGYADSVKGRFTISRDDAKNSLYLQMNSLRAEDTALYYCAKEEGSGRYYNFDYWGQGTLVTVSS
VL: [about 100 residues not written out]

IC50 @ hNGF, NGF neutralization activity of the molecular clone expressed in CHO cells [1]: 0.963 nM
IC50 @ rNGF, NGF neutralization activity of the molecular clone expressed in CHO cells [2]: 0.792 nM
B2: 7H2-rFc (molecular clone of 7H2 expressed in CHO cells) (antibody, V domains shown)
VH: B1 VH
VL: [about 100 residues not written out]
